{"source": "the supplement of paper PMC8728848", "binders": {"B1": {"name": "AAL (Agrocybe aegerita), Q6WY08 (protein)", "chain": "MQGVNIYNISAGTSVDLAAPVTTGDIVTFFSSALNLNAGAGNPNNTTLNLFAENGAYLLHIAFRLQENVIIFNSRQPDGPWLVEQRVSDVANQFAGIDGKAMVTVFDHGDKYQVVINEKTVIQYTKQISGLTLSLSYNATEETSIFSTVVEAVTYTGLALEHHHHHH"}}, "experiment_in_all_cases": "glycan array binding signal (z-score within array); higher = stronger binding", "settings_in_all_cases": "glycan notation: IUPAC condensed, linker removed", "key": {"Fuc(a1-2)Gal": {"target": "Fuc(a1-2)Gal", "procedure,_shortened": "(§1)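 The Consortium for Functional Glycomics database supplied 3228 glycan arrays, of which those lacking an available protein sequence were dropped. The binding signal, a within-array Z-score, was averaged across arrays of the same protein sequence and across linkers. Negative scores can be read as non-binding.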"}, "Fuc(a1-2)Gal(b1-3)GalNAc": {"target": "Fuc(a1-2)Gal(b1-3)GalNAc", "procedure,_shortened": "as §1"}, "[1]": {"target": "Fuc(a1-2)Gal(b1-3)GalNAc(a1-3)[Fuc(a1-2)]Gal(b1-4)Glc", "procedure,_shortened": "as §1"}, "[2]": {"target": "Fuc(a1-2)Gal(b1-3)GalNAc(a1-3)[Fuc(a1-2)]Gal(b1-4)GlcNAc", "procedure,_shortened": "as §1"}, "[3]": {"target": "Fuc(a1-2)Gal(b1-3)GalNAc(b1-3)Gal", "procedure,_shortened": "as §1"}, "[4]": {"target": "Fuc(a1-2)Gal(b1-3)GalNAc(b1-3)Gal(a1-4)Gal(b1-4)Glc", "procedure,_shortened": "as §1"}, "[5]": {"target": "Fuc(a1-2)Gal(b1-3)GalNAc(b1-4)[Neu5Ac(a2-3)]Gal(b1-4)Glc", "procedure,_shortened": "as §1"}, "Fuc(a1-2)Gal(b1-3)GlcNAc": {"target": "Fuc(a1-2)Gal(b1-3)GlcNAc", "procedure,_shortened": "as §1"}, "[6]": {"target": "Fuc(a1-2)Gal(b1-3)GlcNAc(b1-2)Man(a1-3)[Fuc(a1-2)Gal(b1-3)GlcNAc(b1-2)Man(a1-6)]Man(b1-4)GlcNAc(b1-4)GlcNAc", "procedure,_shortened": "as §1"}, "[7]": {"target": "Fuc(a1-2)Gal(b1-3)GlcNAc(b1-2)Man(a1-3)[Fuc(a1-2)Gal(b1-3)GlcNAc(b1-2)Man(a1-6)]Man(b1-4)GlcNAc(b1-4)[Fuc(a1-6)]GlcNAc", "procedure,_shortened": "as §1"}, "[8]": {"target": "Fuc(a1-2)Gal(b1-3)GlcNAc(b1-3)Gal(b1-4)Glc", "procedure,_shortened": "as §1"}, "[9]": {"target": "Fuc(a1-2)Gal(b1-3)GlcNAc(b1-3)GalNAc", "procedure,_shortened": "as §1"}, "[10]": {"target": "Fuc(a1-2)Gal(b1-3)GlcNAc(b1-3)[Fuc(a1-2)Gal(b1-3)GlcNAc(b1-6)]GalNAc", "procedure,_shortened": "as §1"}, "[11]": {"target": "Fuc(a1-2)Gal(b1-3)GlcNAc(b1-3)[Fuc(a1-3)[Gal(b1-4)]GlcNAc(b1-6)]Gal(b1-4)Glc", "procedure,_shortened": "as §1"}, "[12]": {"target": "Fuc(a1-2)Gal(b1-3)GlcNAc(b1-3)[Gal(b1-4)GlcNAc(b1-6)]Gal(b1-4)Glc", "procedure,_shortened": "as §1"}, "[13]": {"target": "Fuc(a1-2)Gal(b1-3)GlcNAc(b1-3)[Neu5Ac(a2-6)Gal(b1-4)GlcNAc(b1-6)]Gal(b1-4)Glc", "procedure,_shortened": "as §1"}, "[14]": {"target": "Fuc(a1-2)Gal(b1-3)GlcNAc6S", "procedure,_shortened": "as §1"}, "[15]": {"target": "Fuc(a1-2)Gal(b1-3)[Fuc(a1-4)]GlcNAc", "procedure,_shortened": "as §1"}, "[16]": {"target": "Fuc(a1-2)Gal(b1-3)[Fuc(a1-4)]GlcNAc(b1-2)Man(a1-3)[Fuc(a1-2)Gal(b1-3)[Fuc(a1-4)]GlcNAc(b1-2)Man(a1-3)]Man(b1-4)GlcNAc(b1-4)GlcNAc", "procedure,_shortened": "as §1"}, "[17]": {"target": "Fuc(a1-2)Gal(b1-3)[Fuc(a1-4)]GlcNAc(b1-2)Man(a1-3)[Fuc(a1-2)Gal(b1-3)[Fuc(a1-4)]GlcNAc(b1-2)Man(a1-6)]Man(b1-4)GlcNAc(b1-4)GlcNAc", "procedure,_shortened": "as §1"}, "[18]": {"target": "Fuc(a1-2)Gal(b1-3)[Fuc(a1-4)]GlcNAc(b1-2)Man(a1-3)[Fuc(a1-2)Gal(b1-3)[Fuc(a1-4)]GlcNAc(b1-2)Man(a1-6)]Man(b1-4)GlcNAc(b1-4)[Fuc(a1-6)]GlcNAc(b1-4)[Fuc(a1-6)]GlcNAc", "procedure,_shortened": "as §1"}, "[19]": {"target": "Fuc(a1-2)Gal(b1-3)[Fuc(a1-4)]GlcNAc(b1-3)[Fuc(a1-3)[Gal(b1-4)]GlcNAc(b1-6)]Gal(b1-4)Glc", "procedure,_shortened": "as §1"}, "[20]": {"target": "Fuc(a1-2)Gal(b1-3)[Fuc(a1-4)]GlcNAc(b1-3)[Gal(b1-4)GlcNAc(b1-6)]Gal(b1-4)Glc", "procedure,_shortened": "as §1"}, "[21]": {"target": "Fuc(a1-2)Gal(b1-4)Fuc(a1-3)]GlcNAc(b1-2)Man(a1-3)[Fuc(a1-2)Gal(b1-4)[Fuc(a1-3)]GlcNAc(b1-2)Man(a1-6)]Man(b1-4)GlcNAc(b1-4)GlcNAc", "procedure,_shortened": "as §1"}, "Fuc(a1-2)Gal(b1-4)Glc": {"target": "Fuc(a1-2)Gal(b1-4)Glc", "procedure,_shortened": "as §1"}, "Fuc(a1-2)Gal(b1-4)Glc6S": {"target": "Fuc(a1-2)Gal(b1-4)Glc6S", "procedure,_shortened": "as §1"}, "Fuc(a1-2)Gal(b1-4)GlcNAc": {"target": "Fuc(a1-2)Gal(b1-4)GlcNAc", "procedure,_shortened": "as §1"}, "[22]": {"target": "Fuc(a1-2)Gal(b1-4)GlcNAc(b1-2)Man", "procedure,_shortened": "as §1"}, "[23]": {"target": "Fuc(a1-2)Gal(b1-4)GlcNAc(b1-2)Man(a1-3)[Fuc(a1-2)Gal(b1-4)GlcNAc(b1-2)Man(a1-6)]Man(b1-4)GlcNAc(b1-4)GlcNAc", "procedure,_shortened": "as §1"}, "[24]": {"target": "Fuc(a1-2)Gal(b1-4)GlcNAc(b1-2)Man(a1-3)[Fuc(a1-2)Gal(b1-4)GlcNAc(b1-2)Man(a1-6)]Man(b1-4)GlcNAc(b1-4)[Fuc(a1-6)]GlcNAc", "procedure,_shortened": "as §1"}}, "note": "The other results are listed elsewhere or left out.", "data": [{"binder": "B1", "values": [{"measurement": "glycan array binding signal (z-score)", "setting": "Fuc(a1-2)Gal", "value": -0.134}, {"measurement": "glycan array binding signal (z-score)", "setting": "Fuc(a1-2)Gal(b1-3)GalNAc", "value": -0.157}, {"measurement": "glycan array binding signal (z-score)", "setting": "[1]", "value": -0.137}, {"measurement": "glycan array binding signal (z-score)", "setting": "[2]", "value": -0.153}, {"measurement": "glycan array binding signal (z-score)", "setting": "[3]", "value": -0.159}, {"measurement": "glycan array binding signal (z-score)", "setting": "[4]", "value": -0.154}, {"measurement": "glycan array binding signal (z-score)", "setting": "[5]", "value": -0.133}, {"measurement": "glycan array binding signal (z-score)", "setting": "Fuc(a1-2)Gal(b1-3)GlcNAc", "value": -0.141}, {"measurement": "glycan array binding signal (z-score)", "setting": "[6]", "value": -0.105}, {"measurement": "glycan array binding signal (z-score)", "setting": "[7]", "value": -0.108}, {"measurement": "glycan array binding signal (z-score)", "setting": "[8]", "value": -0.146}, {"measurement": "glycan array binding signal (z-score)", "setting": "[9]", "value": -0.152}, {"measurement": "glycan array binding signal (z-score)", "setting": "[10]", "value": -0.137}, {"measurement": "glycan array binding signal (z-score)", "setting": "[11]", "value": -0.159}, {"measurement": "glycan array binding signal (z-score)", "setting": "[12]", "value": -0.134}, {"measurement": "glycan array binding signal (z-score)", "setting": "[13]", "value": -0.109}, {"measurement": "glycan array binding signal (z-score)", "setting": "[14]", "value": -0.13}, {"measurement": "glycan array binding signal (z-score)", "setting": "[15]", "value": -0.145}, {"measurement": "glycan array binding signal (z-score)", "setting": "[16]", "value": -0.104}, {"measurement": "glycan array binding signal (z-score)", "setting": "[17]", "value": -0.156}, {"measurement": "glycan array binding signal (z-score)", "setting": "[18]", "value": -0.113}, {"measurement": "glycan array binding signal (z-score)", "setting": "[19]", "value": -0.156}, {"measurement": "glycan array binding signal (z-score)", "setting": "[20]", "value": -0.131}, {"measurement": "glycan array binding signal (z-score)", "setting": "[21]", "value": -0.11}, {"measurement": "glycan array binding signal (z-score)", "setting": "Fuc(a1-2)Gal(b1-4)Glc", "value": -0.153}, {"measurement": "glycan array binding signal (z-score)", "setting": "Fuc(a1-2)Gal(b1-4)Glc6S", "value": -0.156}, {"measurement": "glycan array binding signal (z-score)", "setting": "Fuc(a1-2)Gal(b1-4)GlcNAc", "value": -0.146}, {"measurement": "glycan array binding signal (z-score)", "setting": "[22]", "value": -0.116}, {"measurement": "glycan array binding signal (z-score)", "setting": "[23]", "value": -0.113}, {"measurement": "glycan array binding signal (z-score)", "setting": "[24]", "value": -0.075}]}]}
